# Some of the results follow.
# System: HSkMC (human skeletal muscle cells)
# Experiment: cytotoxicity call (relative viability < 0.9)
# Conditions: 10 µM
row,SMILES,cytotoxicity call
1,C[C@@H]1CCCCO[C@@H](CN(C)C(=O)Nc2cccc3ccccc23)[C@H](C)CN([C@H](C)CO)C(=O)c2cc(NC(=O)Nc3ccc(F)cc3)ccc2O1,inactive
2,Cc1noc(C)c1NC(=O)Nc1ccc2c(c1)C(=O)N([C@@H](C)CO)C[C@H](C)[C@@H](CN(C)Cc1ccc(Cl)c(Cl)c1)OCCCC[C@@H](C)O2,inactive
3,C[C@H]1CC/C=C\[C@H]2O[C@@]34C=CCN(Cn5nnc6ccccc65)C(=O)[C@H]3N(CCCCCCO)C(=O)[C@@H]4[C@@H]2C(=O)O1,inactive
4,C[C@@H]1CN([C@H](C)CO)C(=O)c2cc(NC(=O)CCCN(C)C)ccc2O[C@H]1CN(C)Cc1ccc2c(c1)OCO2,inactive
5,C[C@@H]1CN([C@H](C)CO)C(=O)c2cccc(NS(C)(=O)=O)c2O[C@H]1CN(C)Cc1ccc2c(c1)OCO2,inactive
6,COc1ccc(CN(C)C[C@@H]2OCCCC[C@H](C)Oc3ccc(NC(=O)CCC(F)(F)F)cc3C(=O)N([C@H](C)CO)C[C@@H]2C)cc1,inactive
7,CS(=O)(=O)c1ccc(C(O)C(CF)NC(=O)C(Cl)Cl)cc1 (stereo not given),inactive
8,CCc1nc2ccc(C(=O)N3CCN(S(=O)(=O)CC)CC3)cn2c1N(C=O)Cc1ccc(OC)cc1,inactive
9,Cc1ccc(S(=O)(=O)N(C)C[C@H]2Oc3ccc(NC(=O)Nc4ccc(C(F)(F)F)cc4)cc3CC(=O)N([C@H](C)CO)C[C@H]2C)cc1,active
10,C[C@H]1CCCCO[C@H](CN(C)Cc2ccc(C(=O)O)cc2)[C@@H](C)CN([C@@H](C)CO)C(=O)c2cc(NS(=O)(=O)c3ccccc3)ccc2O1,inactive
11,CCS(=O)(=O)N1Cc2nccn2C[C@H](Cn2ncccc2=O)C1,inactive
12,C[C@H](CO)N1C[C@H](C)[C@@H](CN(C)Cc2ccc(Oc3ccccc3)cc2)Oc2c(NC(=O)c3nc4ccccc4s3)cccc2C1=O,inactive
13,Nc1ccc(C(=O)N2CCOCC2)cc1,inactive
14,CN(C)CC(=O)N1CCOC[C@@H]1c1nccc(N2CCOCC2)n1,inactive
15,C[C@H]1CN([C@@H](C)CO)C(=O)CCCn2cc(nn2)CO[C@H]1CN(C)C(=O)Nc1ccc(N2CCCCC2)cc1,inactive
16,CO[C@@H](CN(C)S(=O)(=O)c1ccc(F)cc1)[C@H](C)CN([C@H](C)CO)S(=O)(=O)c1cccc(Cl)c1,inactive
17,Clc1ccc2c(c1)C(N1CCNCC1)=Nc1ccccc1O2,inactive
18,Cc1ccc(S(=O)(=O)N(C)C[C@@H]2Oc3ccc(NS(=O)(=O)c4ccccc4)cc3CC(=O)N([C@@H](C)CO)C[C@@H]2C)cc1,inactive
19,CC(C)NC(=O)N(C)C[C@H]1Oc2cc(C#Cc3ccc(F)cc3)ccc2S(=O)(=O)N([C@H](C)CO)C[C@@H]1C,inactive
20,COc1ccc(NC(=O)N(C)C[C@@H]2Oc3c(NC(=O)c4cnccn4)cccc3C(=O)N([C@@H](C)CO)C[C@H]2C)cc1,inactive

row,SMILES,cytotoxicity call
1,O=C(O)c1csc2ccccc12,inactive
2,Cc1cccc(C)c1NC(=O)[C@@H](C)N,inactive
3,CC(C)NC(=O)Nc1ccc2c(c1)C(=O)N(C)[C@H]1CC[C@@H](CC(=O)NCc3ccc(F)cc3)O[C@@H]1CO2,inactive
4,CCOC(=O)c1nonc1N,inactive
5,CC(C)NC(=O)N(C)C[C@@H]1Oc2ccc(NC(=O)Cn3cnnn3)cc2C(=O)N([C@@H](C)CO)C[C@H]1C,inactive
6,C[C@H](CO)N1C[C@H](C)[C@H](CN(C)Cc2ccc(Cl)c(Cl)c2)OCc2ccccc2-c2c(n(C)c3ccccc23)C1=O,inactive
7,C[C@@H]1CCn2cc(nn2)COC[C@H](Cc2ccccc2)NC(=O)[C@H](C)CCn2cc(nn2)COC[C@H](Cc2ccccc2)NC1=O,inactive
8,Cc1cc(C(=O)Nc2cccc3c2O[C@@H](CN(C)S(=O)(=O)c2cn(C)cn2)[C@H](C)CN([C@H](C)CO)C3=O)n(C)n1,inactive
9,CN(C)CCN1C[C@@H]2CN(C(=O)c3cnc[nH]3)C[C@H]2C1=O,inactive
10,C[C@@H]1CCCCO[C@H](CN(C)C(=O)Nc2ccc3c(c2)OCO3)[C@@H](C)CN([C@H](C)CO)C(=O)c2cc(NC(=O)CCC(F)(F)F)ccc2O1,inactive
11,C[C@@H]1CN([C@H](C)CO)C(=O)Cc2cc(NS(C)(=O)=O)ccc2O[C@@H]1CN(C)C(=O)Nc1ccc(C(F)(F)F)cc1,inactive
12,Cl.OC(c1cc(C(F)(F)F)nc2c(C(F)(F)F)cccc12)C1CCCCN1 (stereo not given),active
13,CC(C)/C(=N/O)c1ccccc1,inactive
14,C[C@@H]1CN([C@@H](C)CO)C(=O)c2cc(NC(=O)Nc3ccc(F)cc3)ccc2O[C@@H](C)CCCCO[C@@H]1CN(C)Cc1ccc2c(c1)OCO2,inactive
15,C[C@H](C(=O)N(C)C[C@@H]1OCc2ccccc2-c2c(n(C)c3ccccc23)C(=O)N([C@@H](C)CO)C[C@H]1C)c1ccccc1,inactive
16,Cc1noc(C)c1S(=O)(=O)Nc1cccc2c1O[C@@H](CN(C)S(=O)(=O)c1cn(C)cn1)[C@@H](C)CN([C@@H](C)CO)C2=O,inactive
17,COc1ccc(NC(=O)Nc2ccc3c(c2)C(=O)N([C@H](C)CO)C[C@H](C)[C@H](CN(C)S(=O)(=O)c2cccs2)OCCCC[C@@H](C)O3)cc1,inactive
18,CN([NH2+][O-])c1ccc(O)c(O)c1,inactive
19,C[C@H]1CN([C@@H](C)CO)C(=O)Cc2cc(NC(=O)c3ccncc3)ccc2O[C@H]1CN(C)C(=O)NC1CCCCC1,inactive
20,COc1cc(OC)c2c(c1Cl)OC1(C2=O)C(O)=CC(=O)CC1C (stereo not given),inactive

# Source: the antibiotic and cytotoxicity screens of Wong et al. (2023)
